We go through 14 molecules from paper PMC12136788.

To fix the notation:
T1: UNK ZnF1-6 (called full-length) (human, UniProt Q9C0B0 30-357)
T1 sequence: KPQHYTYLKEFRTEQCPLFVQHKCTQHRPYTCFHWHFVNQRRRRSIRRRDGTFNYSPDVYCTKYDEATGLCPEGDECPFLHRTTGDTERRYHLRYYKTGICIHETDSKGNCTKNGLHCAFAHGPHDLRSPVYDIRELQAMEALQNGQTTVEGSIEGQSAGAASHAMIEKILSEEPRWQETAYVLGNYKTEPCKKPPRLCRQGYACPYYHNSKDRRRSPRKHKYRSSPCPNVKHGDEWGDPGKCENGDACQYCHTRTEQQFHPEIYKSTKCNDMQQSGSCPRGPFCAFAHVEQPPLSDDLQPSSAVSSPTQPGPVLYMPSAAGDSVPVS

B1: chr6:143501988:143502101:-|CDS|ENSG00000001036|unk|FALSE|unique (ssRNA)
RNA: GGGAGUUCUACAGUCCGACGAUCUUCAUGUGGAGGAAAUCUUUUGAUGAAUAUUGGGCCCACACUAGAUGGCACCAUUUCUGUAGUUUUUGAGGAGCGACUGAGGCAAAUGGGGUCCUGGCUAAAAGUCAAUGGAGAAGCUAUCAACAGAGGAUUGAGCAUCA
B2: chr2:240467638:240467855:+|3pUTR|ENSG00000063660|msi1|FALSE|unique (ssRNA)
RNA: GGGAGUUCUACAGUCCGACGAUCGGACGGAGGUCCCCGGUUGCUGGUCAGGUCCCCAUGGCUUGUUCUCUGGAACCUGACUUUAGAUGUUUUGGGAUCAGGAGCCCCCAACACAGGCAAGUCCACCCCAUAAUAACCCUGCCACAACAGAGGAUUGAGCAUCA
B3: chr9:134030564:134030586:-|3pUTR|ENSG00000169925|msi1_unk|total|mutant (ssRNA)
RNA: GGGAGUUCUACAGUCCGACGAUCCCUCUGACAGUCUUUUGGGAAAGAGUAACACCCACAUACAGAAUUUGUCACAUCCAGAGCCGCACUGUUCCUUAAUACUGGCAUAAUGCUUCCAGGAAGUUUUUCUUUUUUAUAUUUAAACAACAGAGGAUUGAGCAUCA
B4: chr4:56461171:56461272:+|3pUTR|ENSG00000128050|msi1|FALSE|bound_elsewhere (ssRNA)
RNA: GGGAGUUCUACAGUCCGACGAUCCUUCUGUAACCACAGUGACUACAAGUAGUUCUUUCUCUAUUGAAUUAUUAGGUCCAGAAUAGAAGAUGUCAUUGUACACUUUAUUUCCCUCACACUGUGUUAUGCUCUGAUGUGCUAUGCCAACAGAGGAUUGAGCAUCA
B5: ENSG00000132661:stop:overlap|stop_codon|ENSG00000132661|stop_codon|NA|stop_codon (ssRNA)
RNA: GGGAGUUCUACAGUCCGACGAUCCCAGCAACACAGUGUGGAAGAUCGCAAGUGACUGCUUCCGCUUCCAGGACUGGGCCAGCUAGUGGGGGUGGCAGAGGUCUCUUUGCUUCAUUCAGCCCUAGCUCUGUAGAGAAAUGCAAACAACAGAGGAUUGAGCAUCA
B6: ENSG00000070961:be:win_51|CDS|ENSG00000070961|bound_else_gene|NA|bound_elsewhere_windowed (ssRNA)
RNA: GGGAGUUCUACAGUCCGACGAUCUUUGAAGGAAGCUAAUCAUGAUGGAGACUUUGGAAUUACGCUCGCAGAGCUGCGGGCUCUCAUGGAGCUCAGGUCCACAGAUGCAUUACGAAAAAUACAGGAAAGCUAUGGAGAUGUCUACAACAGAGGAUUGAGCAUCA
B7: chr10:117282838:117282939:-|3pUTR|ENSG00000165650|unk|FALSE|bound_elsewhere (ssRNA)
RNA: GGGAGUUCUACAGUCCGACGAUCCCCCUUGUGUUAUUUUUCUUCCUCUUGGUUUUUGAAUUAGUGUUAAAUAGAAUACUGUCUAGAUUCUUAAAAUAUUUUCAUUUCCAUCAUGGUUAUAACAAAUUUGCUGCAUGCCCAAACCAACAGAGGAUUGAGCAUCA
B8: chr5:139396562:139396955:-|CDS|ENSG00000170469|control|control|control (ssRNA)
RNA: GGGAGUUCUACAGUCCGACGAUCAGGGGUCCACAAGGUGGGGGCUUGUAGCCUAGGGGAGGAGCUGGGUCUUUGUUGUCUGGUAGGCACCACCGCUUCCUUUGGGUAUUUAAUCCCUUCCUAUAUAAACAGCCCUGGUUACCCCAACAGAGGAUUGAGCAUCA
B9: chr4:119293926:119294030:+|3pUTR|ENSG00000145390|unk|FALSE|unique (ssRNA)
RNA: GGGAGUUCUACAGUCCGACGAUCGAUGGAAUUUAAUUUUGCUCCUAGAAUUUUUGUCUUCAGAAUAUCUAGUUAAGAUAAAUUAGGCCUUUGACUAUUAUAGGUAUUCAUAAAUGCUACUUUAGCCAUGUAAGUUAAAAAGUUCAACAGAGGAUUGAGCAUCA
B10: chr8:41543231:41543332:+|3pUTR|ENSG00000147536|msi1|total|mutant (ssRNA)
RNA: GGGAGUUCUACAGUCCGACGAUCAAACCAUUAUUAAAUUUCCAUUCUGCAGCAGAAGGCACCUCUGGACGGCUCCCGGCUUGCCGUUUAAUGAAGUAUGUGCUCCCUGCUGUUAACCCGCAGCCCUCCCCAACUCUCCAGCAGCAACAGAGGAUUGAGCAUCA
B11: chr5:32419879:32419980:-|CDS|ENSG00000056097|msi1|total|mutant (ssRNA)
RNA: GGGAGUUCUACAGUCCGACGAUCAGUUACUGCUGCCUAUGCACCAGCAGCCGCCACAGUUGCAGUUGCCAGGCCUGCUCCAGCCGCUGUUGCAGCUGCUGCAACAGCUGCUGCUUAUGGAGGCUACCCCACUGCACACACAGCCAACAGAGGAUUGAGCAUCA
B12: chr1:37534448:37537747:-|three_prime_utr|ENSG00000163877|control|control|control (ssRNA)
RNA: GGGAGUUCUACAGUCCGACGAUCCACAUGCCUGCAGGCAUUUGUUUUCAGAACAGUCUCACCAAUUACAACACACCGUGUUUUAGUAGAAGUGUUGUGGUUUUAGUUGGUGCUUUCAGAACUGCUGCCUAGGAAACUAUAAACCAACAGAGGAUUGAGCAUCA
B13: chr1:203709306:203709407:+|CDS|ENSG00000058668|msi1|total|mutant (ssRNA)
RNA: GGGAGUUCUACAGUCCGACGAUCUCCAGAGAAGGAGGGAGGCCUGCCUCGGCAGGUGGGCAACAAGACCGAGUGUGCUCUGCCCGGCUUUGUCACAGAUCUGAAGCAGGAUUAUCAGGCUGUGCGUAAUGAAGUGCCCGAGGACAACAGAGGAUUGAGCAUCA
B14: ENSG00000099904:stop:overlap|stop_codon|ENSG00000099904|stop_codon|NA|stop_codon (ssRNA)
RNA: GGGAGUUCUACAGUCCGACGAUCGGGCCAUGUGCCGCCUGCACUUGGCUGCCUCCAGUCUUUUCCCCAGCCUCUCGGGGCCCUAGCAGGAUGACAAGUAGGCGGCUCUGGGGCCCAGGACAGCCCAGCUGGGGACCCAGGAGGCAACAGAGGAUUGAGCAUCA

The other results are listed elsewhere or left out.

This experiment addresses T1, UNK ZnF1-6 (called full-length). Nature of the experiment: nsRBNS (natural sequence RNA bind-n-seq); RBNS binding buffer (assumed for nsRBNS): 25 mM Tris pH 7.5, 150 mM KCl, 3 mM MgCl2, 0.01% Triton X-100, 500 ug/ml BSA, 20 U/ml SUPERase-In, 4 C; UNK is unkempt and MSI1 is Musashi-1; names of the RNAs are library labels; protein concentration not given here; high values mean tight binding.
B1 displayed a binding signal of 1.04 enrichment R. In turn, B2 registered a binding signal of 0.854 enrichment R. For B3 the value was 0.686 enrichment R. As for B4, the binding signal is 0.758 enrichment R. Next, B5: 0.721 enrichment R; B6: 0.507 enrichment R; B7: 3.48 enrichment R. For B8 the value was 2.66 enrichment R. Next, B9: 2.84 enrichment R. In the case of B10, the binding signal was found to be 1.48 enrichment R.

With B11, the binding signal stood at 0.454 enrichment R. B12: the binding signal came to 0.589 enrichment R. For B13 the value was 0.691 enrichment R; for B14, 1.2 enrichment R.
